Assay results taken from US20130084291A1.

Biological target: TNF-alpha
Experiment: cell-based or functional assay

IC50 (WEHI Assay), normalized to TNFR-h(1)Fc wt (fold of wt (normalized)) | IC50 (ng/ml), WEHI assay as in Example 3 | Binder
1 | – | TNFR2-h(1)Fc (Fc fusion) LPAQVAFTPYAPEPGSTCRLREYYDQTAQMCCSKCSPGQHAKVFCTKTSDTVCDSCEDSTYTQLWNWVPECLSCGSRCSSDQVETQACTREQNRICTCRPGWYCALSKQEGCRLCAPLRKCRPGFGVARPGTETSDVVCKPCAPGTFSNTTSSTDICRPHQICNVVAIPGNASMDAVCTSTSPTRSMAPGAVHLPQPVSTRSQHTQPTPEPSTAPSTSFLLPMGPSPPAEGSTGD[… human IgG1 Fc with changes …]
– | 10.4 ng/mL | CΔ46 TNFR2-h(2)Fc (Fc fusion) LPAQVAFTPYAPEPGSTCRLREYYDQTAQMCCSKCSPGQHAKVFCTKTSDTVCDSCEDSTYTQLWNWVPECLSCGSRCSSDQVETQACTREQNRICTCRPGWYCALSKQEGCRLCAPLRKCRPGFGVARPGTETSDVVCKPCAPGTFSNTTSSTDICRPHQICNVVAIPGNASMDAVCTSTSPTRSMAPTG[… human IgG1 Fc and a few adjoining residues …]
